In the supplement of paper PMC10126150:
Sequences with one replicate were seen in a single cluster, so their values are uncertain.

Tested on: ATP
Assay: switch fluorescence ratio, 500 uM ATP over buffer (Cy3 cluster intensity, sum of 5 cycles each) (fold (ratio)); higher = stronger signal-on switching upon ATP binding; sequences stand for … in TCGTCGGCAGCGTCAGATGTGTATAAGAGACAGTTTTTTTTTTTTTTTTTTTTTTTTT…TC
Conditions: aptamer strand: ATP DNA aptamer (quencher-CACCTGGGGGAGTATTGCGGAGGAAGG + anchor), 100 nM annealed; ATP concentration: 500 uM; one replicate
Method in brief: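 Clusters carrying Cy3-labelled switching strands on a modified Illumina MiSeq flow-cell were annealed to 100 nM quencher-labelled ATP aptamer and imaged in selection buffer. They were imaged again after 15 min with 500 uM ATP at 22 °C, over five buffer/ATP cycles with NaOH stripping and re-annealing in between. For each cluster, the fluorescence ratio is the summed Cy3 intensity of the target cycles divided by that of the buffer cycles, averaged per switch-domain sequence. Clusters outside 100-1000 RFU were left out.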
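Also: ATP exposure 15 min at 22 °C before imaging.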

Row | Sequence | switch fluorescence ratio
1 | CGTTGTTTGT | 0.968
2 | ATGCCTCCCT | 0.999
3 | CTGGTTAC | 1.06
4 | TTTCCAGGAA | 1.55
5 | TCAAGCACAG | 1.13
6 | TAAGCTTTGC | 0.948
7 | TGTGTGCGGG | 1.02
8 | GTCACAGCCG | 1.08
9 | GGATGCAATA | 2.67
10 | GTAGTGATAA | 1.29
11 | TCGTTGGAAC | 0.989
12 | AGGAGCGGCT | 0.991
13 | GAGCCGGCAG | 1.06
14 | TGGGATGAGG | 0.956
15 | TCGGCAGGG | 0.98
16 | CATGAGAGTG | 0.954
17 | GCAATGAGCG | 1.01
18 | TTAGGACTAT | 1.01
19 | TGGTGTAGGA | 1.02
20 | GGAATATTGA | 0.998
21 | AGAGCAAGTC | 1.24
22 | ACCCGTACGG | 0.999
23 | CTAGTCCCAG | 1.06
24 | ATCGCATTGT | 1.08
25 | ACTGGACTCA | 1.15
26 | TGCAACAAGG | 1.05

Row | Sequence | switch fluorescence ratio
27 | GGGGTGACTC | 0.973
28 | CCACCACGGT | 2.02
29 | GAGACAGAAG | 1.03
30 | CATGGCGCTT | 1.02
31 | GGGCGTTGAG | 1.01
32 | ACATAAGTA | 1.02
33 | AACCAGGAC | 1.06
34 | GAAACTTTGA | 0.952
35 | ATTTATGATT | 0.976
36 | GTTAGTTTAG | 0.987
37 | AGGGGATTTA | 0.945
38 | ATGAAGCAGT | 1.44
39 | CTGACGAATA | 3.35
40 | TTTAGGCAGT | 1.03
41 | ATTTTCTGCG | 0.944
42 | AGCTTGCGGC | 0.992
43 | TGCAAGGAAA | 1.02
44 | ACCGCGGCCA | 1.03
45 | TGCTGATACA | 1.04
46 | CTGTGGAACA | 0.983
47 | AGGACGTGTT | 1
48 | TTATCATGGT | 1.01
49 | GGCCTGGGAA | 1.04
50 | TGGAGAGAGT | 0.957
51 | TGGAATATCC | 1.03
52 | TAATTTATCT | 0.982

Row | Sequence | switch fluorescence ratio
53 | GGTCGGTTGT | 0.963
54 | TAATTCG | 0.995
55 | TTTCGTTCG | 1.03
56 | GAGAACATTG | 1.02
57 | GGAGTTTACA | 0.984
58 | ACGTTTATAT | 1
59 | TGAGTGATG | 0.968
60 | CAATTGCTTG | 1.03
61 | GGGAAGCGGC | 0.988
62 | AGCGTCGTAG | 1.01
63 | GAATTAACA | 1.02
64 | TGTTAACGA | 0.992
65 | GCGCGAGAGG | 0.989
66 | TTCATATGGA | 1.01
67 | CTTGCTATTT | 1.02
68 | ATGGACAAGA | 1.02
69 | CAATGAATTA | 1.03
70 | GTTTTAGGAT | 1.03
71 | ACGTCGGAAA | 0.995
72 | GCTTTATCGT | 0.95
73 | AAGCTGTTGG | 0.954
74 | CCCTTAGGGG | 1.06
75 | GTCCTGCGCC | 2.15
76 | CGAGAATGA | 1.03
77 | ACTGGTATTC | 1.03
78 | TTATTACAGA | 0.988

Row | Sequence | switch fluorescence ratio
79 | ATAAGATCCC | 1
80 | TGGCCAGGAG | 1.34
81 | GCGGTTTTGC | 1.03
82 | GTTTCACGCC | 1.04
83 | GGGCAACCTA | 1.02
84 | ATTGTCGGAT | 1.02
85 | AGTGGTGCAG | 1.05
86 | ACTTCGTTTG | 1.08
87 | CATCCGAAGA | 2.04
88 | TATGTGATC | 1
89 | TATCTTACTT | 1.05
90 | TAATTGCGTT | 1.02
91 | GAAAGCCAGA | 0.958
92 | CGTCTGGGGT | 0.99
93 | TGCGTGCTAC | 1.13
94 | TCCATTCCT | 1.16
95 | TATCGTGCCA | 1.02
96 | GCACATACAA | 1.39
97 | AATCAGATAA | 1.04
98 | ACGGGGTCGA | 0.934
99 | TTAGTGGAGA | 0.998
100 | GAATCACGGC | 1.08
101 | TTTAGTGACC | 1.02
102 | TGGCGGGTGT | 1.03
103 | CGGGATTTAT | 1.01
104 | TACGGCGATT | 1.02

Row | Sequence | switch fluorescence ratio
105 | GGATGCTA | 0.976
106 | TCGCGGAGAC | 2.69
107 | AGCCGTCCGC | 1.15
108 | AGGTGCACAG | 1.01
109 | ATTGATTAT | 1.02
110 | TGGTGTTAT | 0.993
111 | CAGACGTTTA | 0.982
112 | TGATCGAATT | 0.997
113 | TGTTATAGGA | 1.01
114 | CCTCCATGGA | 1.25
115 | CCCAGGGCCC | 0.999
116 | TATAAGCGGT | 0.969
117 | AGGTCTGGAC | 1.01
118 | CTGATTATG | 1.03
119 | TGCCGTTCAC | 0.974
120 | GGACCGAGTA | 1.05
121 | GTGATGAAGG | 1.01
122 | AGGTAAGTG | 0.927
123 | ACCGTGTCAC | 1.02
124 | ATCCCAGCAG | 1.49
125 | GAGGAACTTT | 1.01
126 | GTCGATGGGA | 1
127 | TTTGTTGTTC | 0.989
128 | TTAAATGGCT | 1.23
129 | GACCGGGGG | 1.12
130 | CTAATTTTTA | 0.98

Row | Sequence | switch fluorescence ratio
131 | ACCGCTTCAA | 1.09
132 | CATGTCGTTC | 1.02
133 | ATGCCTTGGG | 0.961
134 | CATTATCCCT | 1.06
135 | TGGCATCCAG | 0.992
136 | TAATTATTCG | 1
137 | AAAGCTGTGT | 1.01
138 | GCGATTACA | 0.967
139 | GGAGTCTGTA | 0.972
140 | TCACATCACT | 1.32
141 | CATCGACTGA | 1.02
142 | GGTGTACTTT | 0.983
143 | AATAGCACAC | 1.38
144 | TGAATTCCGT | 0.981
145 | TGAAGGCGAT | 0.995
146 | ACGGCGGAGA | 1.02
147 | TGAGCAAATT | 1.06
148 | TTGACTGGCG | 1.11
149 | TGCAGGCCTG | 0.998
150 | GGGGGGCCCC | 1.04
151 | CCTGCTGACA | 1.1
152 | ACCTCGCGCT | 1.32
153 | TTGGTAGGA | 0.963
154 | CGGGGATGGA | 1.05
